{
  "source": "PubChem BioAssay AID588855",
  "about": "(National Center for Advancing Translational Sciences (NCATS), 2011)",
  "note": "In all, about 410,000 compounds went through this assay and about 5,000 (1.2%) were called active. Inconclusive results, whose numbers are uncertain, are shown with a selection of clear calls. Calls follow the shape of the dose curve; as a rule, active = well fitted inhibition curve with a large enough effect; inconclusive = small, poorly fitted or top-dose-only effect; inactive = no such curve, though single readings can be large or run the other way. Where the call is inconclusive, the potency comes from a doubtful curve fit. % is scaled to controls: 0 for no effect and ±100 for the full control effect; potency is read from the fitted curve at half-maximal effect; tags tell the direction and shape of the fitted curve.",
  "data": [
    {"experiment": "qHTS for Inhibitors of TGF-b; also: nearly all actives have a fitted effect of over 65% in size", "details": "HepG2 CAGA-GFP TGF-b/SMAD3 reporter, GFP fluorescence, 18 h, TGF-beta stimulated, 500 pg/mL final; series mostly up to 46.1 µM; activity, negative = inhibition: at the top concentration", "method_in_brief": "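GFP signal (ex488/em500-530) from TGF-beta-stimulated HEPG2 CAGA-GFP cells, 500 pg/mL final, 18 h at 37 degrees C in DMEM plus 1% FBS, normalized to unstimulated and DMSO-stimulated controls.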", "values": [
      {"smiles": "CC(=O)NCC1(c2ccccc2)CCN(CCCC(=O)c2ccc(F)cc2)CC1", "activity, negative = inhibition": "inactive: 0.541%"},
      {"smiles": "c1ccc([C@H]2CN3C(=N2)Sc2ccccc23)cc1", "Potency": "inconclusive: 7.08 µM [inhibitor, partial curve]"},
      {"smiles": "COC(CNC(=O)C(=O)NCC1CCCN1S(=O)(=O)c1cccs1)OC", "note": "(stereo not drawn)", "activity, negative = inhibition": "inactive: 16.5%"},
      {"smiles": "CCCC(=O)N1CC(=O)Nc2ccc(C)cc2C1c1ccc(F)cc1", "note": "(stereo not drawn)", "activity, negative = inhibition": "inactive: 4.94%"},
      {"smiles": "CCc1cccc(CC)c1NC(=S)/C(=C(\\[O-])c1ccc(Cl)s1)[n+]1ccccc1", "Potency": "inconclusive: 1.58 µM [inhibitor, partial curve, poor fit]"},
      {"smiles": "CCC(C)Nc1nc(Cl)nc(N(C#N)CN2C(=O)c3ccccc3S2(=O)=O)n1", "note": "(stereo not drawn)", "Potency": "inconclusive: 12.6 µM [inhibitor, single point]"},
      {"smiles": "CCOc1ccc(NC(=O)CSc2nc(-c3cccs3)cc(C(F)(F)F)c2C#N)cc1", "activity, negative = inhibition": "inactive: -0.577%"},
      {"smiles": "Oc1ccc(/C=C/c2nc(-c3ccccc3O)n(-c3ccccc3)n2)c(O)c1", "Potency": "active: 11.2 µM"},
      {"smiles": "Cc1oc2c(C)c3oc(=O)c(CCC(=O)N4C[C@H]5C[C@@H](C4)c4cccc(=O)n4C5)c(C)c3cc2c1C", "activity, negative = inhibition": "inactive: 5.41%"},
      {"smiles": "COc1ccc(C(=O)NCc2ccc(S(N)(=O)=O)cc2)cc1[N+](=O)[O-]", "activity, negative = inhibition": "inactive: -12.9%"},
      {"smiles": "CC1(c2ccc(Cl)cc2)NC(=O)N(CC(=O)N2CCN(S(=O)(=O)c3ccccc3)CC2)C1=O", "note": "(stereo not drawn)", "Potency": "inconclusive: 10 µM [inhibitor, partial curve]"},
      {"smiles": "CCn1c(SCC(=O)Nc2ccc3c(c2)OCO3)nnc1C(C)C", "activity, negative = inhibition": "inactive: 4.79%"},
      {"smiles": "Cc1ccc(OC(=O)c2oc3ccc(F)cc3c2C)c(C)c1", "activity, negative = inhibition": "inactive: -5.08%"},
      {"smiles": "COc1cccc(NC(=O)Nc2cccn(Cc3ccc(C)cc3)c2=O)c1", "Potency": "inconclusive: 20 µM [inhibitor, single point]"},
      {"smiles": "S=C1SCN(Cc2cccs2)CN1Cc1cccs1", "Potency": "active: 12.6 µM"},
      {"smiles": "Cc1ncsc1C(=O)Nc1nc2c(s1)CCCC2", "activity, negative = inhibition": "inactive: -22.4%"},
      {"smiles": "COc1cc(NC(=O)Cn2nc(C(F)(F)F)c(Br)c2C)cc([N+](=O)[O-])c1", "Potency": "inconclusive: 35.5 µM [inhibitor, single point]"},
      {"smiles": "CCOC(=O)Cn1c(=O)oc2cc(S(=O)(=O)Nc3ccc(F)cc3)ccc21", "Potency": "inconclusive: 7.08 µM [inhibitor, partial curve, poor fit]"},
      {"smiles": "COc1ccc(CCNc2oc(COc3ccccc3Cl)nc2C#N)cc1OC", "Potency": "inconclusive: 6.31 µM [inhibitor, single point]"},
      {"smiles": "CCOc1ccc(/C=C2\\SC(=O)N(CCNC(=O)CN3C(=O)NC4(CCCC4)C3=O)C2=O)cc1OC", "Potency": "inconclusive: 6.31 µM [inhibitor, single point]"},
      {"smiles": "Cc1ccc(-c2noc(-c3ccccc3NC(=O)C3CC(=O)N(c4cccc(C)c4)C3)n2)cc1", "note": "(stereo not drawn)", "activity, negative = inhibition": "inactive: -9.8%"},
      {"smiles": "CCC(CC)COC(=O)C1=C(C)NC(=O)NC1c1ccccc1Br", "note": "(stereo not drawn)", "Potency": "inconclusive: 35.5 µM [inhibitor, single point]"},
      {"smiles": "COC(=O)CC1c2cc(OC)c(OC)cc2CC(=O)c2cc(OC)c(OC)cc21", "note": "(stereo not drawn)", "Potency": "inconclusive: 5.62 µM [inhibitor, single point]"},
      {"smiles": "COc1cc(/C=C2\\SC(=Nc3ccccc3)N(CCc3c[nH]c4ccccc34)C2=O)ccc1OC(C)C(=O)O", "note": "(stereo not drawn)", "activity, negative = inhibition": "inactive: -17.1%"},
      {"smiles": "CC(C)Cn1c(=O)c(C(=O)N/N=C/c2cccc(F)c2)c(O)c2ccccc21", "activity, negative = inhibition": "inactive: -17.5%"},
      {"smiles": "COc1ccccc1NC(=S)NCCc1ccc(OC)c(OC)c1", "activity, negative = inhibition": "inactive: -2.05%"},
      {"smiles": "CC1=C(C(=O)OC(C)C)C(c2ccccc2)NC(=S)N1C", "note": "(stereo not drawn)", "Potency": "inconclusive: 14.1 µM [inhibitor, single point]"},
      {"smiles": "Cc1ccccc1-n1nc(-c2ccc(N)cc2)cc1N", "activity, negative = inhibition": "inactive: -0.39%"},
      {"smiles": "c1ccc2c(NC3C4CC5CC(C4)CC3C5)nc(N3CCOCC3)nc2c1", "note": "(stereo not drawn)", "Potency": "inconclusive: 12.6 µM [inhibitor, partial curve, poor fit]"},
      {"smiles": "O=C(Cn1sc2ccccc2c1=O)NC12CC3CC(CC(C3)C1)C2", "Potency": "inconclusive: 15.8 µM [inhibitor, single point]"},
      {"smiles": "CCCCNC(=O)C(CC)Sc1nnc(-c2ccc(F)cc2)c(-c2ccc(F)cc2)n1", "note": "(stereo not drawn)", "activity, negative = inhibition": "inactive: -8.45%"},
      {"smiles": "CCCCCNC(=O)c1cc2c(=O)n3ccccc3nc2n1C", "Potency": "inconclusive: 8.91 µM [inhibitor, partial curve]"},
      {"smiles": "COc1cccc(C(=O)Nc2ccccc2N2CCCC2)c1", "Potency": "inconclusive: 0.112 µM [inhibitor, full curve, poor fit]"},
      {"smiles": "COc1cc(C(=O)Nc2cccc3ncccc23)cc(OC)c1OC", "activity, negative = inhibition": "inactive: 20.8%"},
      {"smiles": "CN(C(=O)CC1C(=O)NCCN1Cc1cccc(F)c1F)C1CC(C)(C)NC(C)(C)C1", "note": "(stereo not drawn)", "Potency": "inconclusive: 6.31 µM [inhibitor, single point]"},
      {"smiles": "O=C(Nc1ccc2[nH]c(=O)[nH]c2c1)c1cccc([N+](=O)[O-])c1", "activity, negative = inhibition": "inactive: -0.389%"},
      {"smiles": "COc1ccc([C@H]2CC(=O)C=C(C#CC(C)(C)C)C2)cc1", "activity, negative = inhibition": "inactive: -16%"},
      {"smiles": "CCCCNC(=O)c1ccc2nc(CC)c(N(CC)CCN(C)C)n2c1", "activity, negative = inhibition": "inactive: 42.6%"},
      {"smiles": "O=[N+]([O-])c1ccc(/C=N/Nc2nc(NCc3ccccc3)nc(N3CCOCC3)n2)cc1", "Potency": "inconclusive: 14.1 µM [inhibitor, single point]"},
      {"smiles": "CN(C)CCn1cnc2c1c(=O)n(C)c(=O)n2C", "Potency": "inconclusive: 35.5 µM [inhibitor, single point]"},
      {"smiles": "CC(C)OCCCNC(=O)COCC(=O)Nc1ccc(OCCc2ccccc2)cc1", "Potency": "inconclusive: 10 µM [inhibitor, partial curve]"},
      {"smiles": "CC1=Nc2cc(C(=O)NC3CCCCC3)ccc2Sc2ccc(Cl)cc21", "Potency": "inconclusive: 7.94 µM [inhibitor, partial curve, poor fit]"},
      {"smiles": "CN(C(=O)c1ccc(NC(=O)Cc2ccc([N+](=O)[O-])cc2)cc1)C1CC1", "activity, negative = inhibition": "inactive: 0.273%"}
    ]}
  ]
}
